# Results: PubChem BioAssay AID463173 (ICCB-Longwood Screening Facility, Harvard Medical School, 2010)
# The whole screen tested about 52,000 compounds, of which about 1,700 (3.3%) were called active. No stated cut-off is given here; in the data, active means survival mostly below about 52% (no sharp cut-off); inactive means mostly above about 56%. The list shows a part of the results.
# Tested on: Wild type
# Assay: growth inhibition of S. aureus wild type versus tarO mutant, primary screen, teichoic acid synthesis inhibitors, RN4220, OD600 (AID 463173)
# Details: S. aureus RN4220 wild type/DeltatarO growth, OD600, 18 h, stronger effect = lower value, screened at 18.75 µg/mL (by protocol)
row,Compound,survival
1,COc1cc(NC(=O)C2CCN(S(=O)(=O)c3c(C)noc3/C=C/c3c(C)cc(C)cc3C)CC2)cc(OC)c1,inactive: 80%
2,COc1ccc(OC)c(CNc2ncc(-c3ccc(Cl)cc3)n2C)c1,inactive: 34%
3,CCC(=O)N=c1sc2ccccc2n1C,inactive: 110%
4,Cc1ccccc1CN1C(=O)c2ccccc2Sc2ccc(C(=O)NCCCN3CCOCC3)cc21,inactive: 66%
5,O=C(NCCCc1ccccc1)c1ccc2c(c1)sc1nc(-c3ccc(F)cc3)cn12,inactive: 43%
6,O=C(NC1CCCCC1)c1ccc2ccccc2n1,inactive: 117%
7,CC(=O)c1ccc(S(=O)(=O)Nc2cccc(-c3ccc(N4CCCC4)nn3)c2)cc1,inactive: 71%
8,Cc1ccc(Sc2c(C)nn(-c3ccccc3)c2OC(=O)CC(C)C)cc1,inactive: 45%
9,CC1(C)CC2(C=CC(=O)CC2)CCO1 (stereo unspecified),inactive: 96%
10,CCOc1ccc(CC(=O)NCc2ccc3c(c2)CCN3C(=O)c2ccc(F)cc2)cc1OCC,inactive: 69%
11,Cc1ccc(NC(=O)c2sc3nc[nH]c(=O)c3c2C)cc1C,inactive: 93%
12,Cc1ccc(NC(=O)CN2C(=O)c3ccccc3Sc3ncccc32)c(C)c1,inactive: 90%
13,O=C(NCCc1ccc(Cl)cc1)c1ccc2c(c1)N(Cc1ccccc1)C(=O)CS2,inactive: 19%
14,COc1ccccc1NC(=O)C1=C(C)Nc2nc(SCc3ccccc3)nn2C1c1cccs1 (stereo unspecified),inactive: 127%
15,CC(=O)c1ccc(NC(=O)c2nn(C)c3c2COc2ccccc2-3)cc1,inactive: 97%
16,CCn1c(SCC(=O)Nc2cc(Cl)ccc2OC)nc2c([nH]c3ccccc32)c1=O,inactive: 75%
17,Cc1sc2ncnc(N3CCC(C)CC3)c2c1C,inactive: 101%
18,CCc1cc2c(-c3ccccc3)cc(=O)oc2c2c1OCN(Cc1ccc(C)cc1)C2,inactive: 75%
19,CCOC(=O)c1c(NC(=O)c2cc(-c3ccc(Br)cc3)on2)sc(C)c1C,inactive: 154%
20,NC(=O)c1ccccc1NC(=O)CSc1nc(N)cc(=O)[nH]1,inactive: 111%
21,CC(Oc1ccccc1F)C(=O)N1CCC(c2nc3ccccc3o2)CC1 (stereo unspecified),active: -18%
22,CCOc1ccccc1NC(=O)N1CCC(N2CCN(Cc3ccccc3)C(=O)C2=O)CC1,inactive: 68%
23,CNC(=S)N(CCN1CCOCC1)Cc1cc2cc(C)c(Cl)cc2[nH]c1=O,inactive: 113%

row,Compound,survival
1,O=c1c2ccccc2nc(-c2ccc(Cl)cc2)n1CCCCOc1ccc(F)cc1,inactive: 60%
2,CN1C(=O)SC(N(CC(N)=O)c2ccccc2)C1=O (stereo unspecified),inactive: 98%
3,COC(=O)c1ccc(NC(=O)CCOc2ccccc2)cc1,inactive: 76%
4,Cc1ccc(Cn2c(Cc3ccccc3)nc3ccccc32)cc1,active: -1%
5,Cc1ccc(N(CC(=O)NCc2ccc(OC(C)C)cc2)S(=O)(=O)N(C)C)cc1,inactive: 45%
6,CCOC(=O)c1ccccc1NC(=O)CCc1c(C)nc2c(c1C)c(=O)n(C)c(=O)n2C,inactive: 91%
7,CCOc1ccc(CN2C(=O)c3ccccc3Sc3ccc(C(=O)NC4CCC(C)CC4)cc32)cc1 (stereo unspecified),inactive: 88%
8,COC(=O)c1ccc(NC(=O)c2cc3cc4ccc(OC)c(Cl)c4nc3s2)cc1,inactive: 88%
9,COc1ccc(CNC(=O)CCS(=O)(=O)c2cc3c4c(c2)CCN4C(=O)CC3)cc1,inactive: 77%
10,Cc1cccc(NC(=O)Cn2c(=O)oc3cc(S(=O)(=O)N4CCCCCC4)ccc32)c1,inactive: 106%
11,COc1ccc(-c2noc(CSc3nnc(-c4ccncc4)n3-c3ccc(OC)cc3)n2)cc1,inactive: 102%
12,Cn1cc(C(=O)N2CCN(c3ccccc3)CC2)c(=O)c2cc(S(=O)(=O)N3CCCC3)ccc21,inactive: 135%
13,O=C(NC1CC(=O)N(c2ccc(F)cc2)C1)C(c1ccccc1)c1ccccc1 (stereo unspecified),inactive: 135%
14,O=C(C1CC1)N1CCc2cc(Br)cc(S(=O)(=O)Nc3ccc(C(F)(F)F)cc3)c21,inactive: 67%
15,CCOc1ccc(-n2nc3ccc(NC(=O)COc4ccccc4C)cc3n2)cc1,inactive: 83%
16,Cc1ccc(CSc2nc3cccnc3n2Cc2nc(-c3ccccc3F)oc2C)cc1,inactive: 73%
17,COCCNC(=O)c1ccc(NC(=O)N2CCCCc3ccccc32)cc1,inactive: 49%
18,CCOc1ccc(CNC(=O)CN2C(=O)CSc3c2c(C)nn3-c2ccccc2)cc1,inactive: 80%
19,O=C(Nc1c(O)c2ccccc2oc1=O)c1ccccc1Cl,inactive: 64%
20,COc1nc(N(C)C)nc(N(CN2C(=O)c3ccccc3C2=O)S(=O)(=O)c2ccc(C)cc2)n1,inactive: 108%
21,COc1ccc(S(=O)(=O)N(CCc2ccccc2)CC(=O)NCc2ccc(C)cc2)cc1,inactive: 67%
22,CCCC(=O)Nc1nnc(S(=O)(=O)N(C)c2ccccc2)s1,inactive: 113%
23,COC(=O)c1ccccc1NC(=O)CSc1c2c(nc3ccc(Cl)cc13)CCCC2,inactive: 78%

row,Compound,survival
1,COc1ccccc1CCNC(=O)C1CCN(c2nc3ccccc3nc2C(F)(F)F)CC1,inactive: 121%
2,O=C(NCC(c1cccnc1)N1CCN(Cc2ccccc2)CC1)C(=O)Nc1ccc(F)cc1 (stereo unspecified),inactive: 99%
3,COc1cccc(CNC(=O)C2CCCN(c3nnc(-n4c(C)ccc4C)s3)C2)c1 (stereo unspecified),inactive: 81%
4,Cc1cc(C)c(S(=O)(=O)Nc2ccc(-c3ccc(N4CCCCC4)nn3)cc2)cc1C,inactive: 53%
5,CCOC(=O)N1CCN(CCC(=O)Nc2cc(C)ccc2C)CC1,inactive: 72%
6,CC(C)c1ccc(NC(=O)CN(C)S(=O)(=O)c2ccc3c(c2)n(C)c(=O)c(=O)n3C)cc1,inactive: 73%
7,CCn1cnc2cc(NCc3ccc(N(C)C)cc3)ccc21,inactive: 94%
8,O=C(NC(=S)Nc1ccc(N2CCOCC2)cc1)c1ccccc1,inactive: 97%
9,CCC1CCCCN1C(=O)CSc1nc(-c2ccc(OC)cc2)cc(C(F)(F)F)n1 (stereo unspecified),active: -6%
10,CCOc1ccc(C(=O)Nc2ccc3nc(SCC(=O)N4CCCC4)sc3c2)cc1,inactive: 89%
11,CCc1ccc(CNC(=O)c2cnc3sc(N4CCCCCC4)nn3c2=O)cc1,inactive: 72%
12,CCn1cc2nc(SCC(=O)Nc3cccc(Cl)c3C)n(Cc3ccc(Cl)cc3)c(=O)c2n1,inactive: 52%
13,COc1ccc(C(=O)NCc2nnc(SCC(=O)Nc3ccc(C)cc3)n2-c2ccccc2)cc1,inactive: 135%
14,CCc1ccc(CNC(=O)c2ccc(NC(=O)N3CCSc4ncccc43)cc2)cc1,inactive: 81%
15,O=C(CSc1nc2ccccc2c(=O)n1Cc1ccco1)N(c1ccccc1)c1ccccc1,inactive: 114%
16,CCc1nc2nc(C)cc(Nc3cc(Cl)ccc3OC)n2n1,inactive: 70%
17,Cc1ccc(SCC(=O)Nc2ccc3oc(-c4ccc(F)cc4)nc3c2)cc1,inactive: 87%
18,O=C(Nc1cccnc1)c1cccs1,inactive: 120%
19,CCOc1ccc(CNC(=O)CCc2c(C)nn(-c3ccc(N4CCOCC4)nn3)c2C)cc1,inactive: 71%
20,Cc1cc(C(F)(F)F)n2nc(C(N)=O)cc2n1,inactive: 103%
21,Cc1ccc(S(=O)(=O)N2CCC(c3nnc(-c4cccc(C)c4)o3)CC2)cc1,inactive: 76%
22,CCOc1ccc(CCNC(=O)c2ccc(C)c(-n3cnc4cccnc43)c2)cc1,inactive: 67%
23,CC(C)NC(=O)Cn1c(=O)nc(-c2ccccc2)c2ccccc21,inactive: 72%

row,Compound,survival
1,Cc1cccc(N(C)C(=O)CS(=O)(=O)c2cccc3nsnc23)c1,inactive: 58%
2,Cc1ccc(C(C)C)c(OCc2ccc(C(=O)Nc3ccc(S(N)(=O)=O)cc3C)o2)c1,inactive: 30%
3,COc1cccc(CNC(=O)c2ccc3c(Cl)c4c(nc3c2)CCCC4)c1,inactive: 60%
4,CCOc1ccc(Nc2cc(C)c(C#N)c3nc4ccccc4n23)cc1,inactive: 76%
5,O=C(CSc1ncn[nH]1)Nc1nccs1,inactive: 113%
6,Cc1ccc(S(=O)(=O)c2nc(-c3ccco3)oc2SCC(=O)c2ccc(Cl)cc2)cc1,inactive: 73%
7,O=C(OCc1ccco1)c1ccc2c(c1)N(Cc1ccc([N+](=O)[O-])cc1)C(=O)c1ccccc1S2,inactive: 92%
8,O=C(CN1C(=O)COc2ccc(S(=O)(=O)N3CCCC3)cc21)NCCc1ccc(Cl)cc1,inactive: 128%
9,Oc1ccccc1-c1nc(/C=C/c2ccccc2)nn1-c1ccccc1,active: 2%
10,CCOC(=O)c1c(NC(=O)c2ccccc2C)sc2c1CCCC2,active: -8%
11,Cc1nc(-n2nc(C)c(CCC(C)C)c2C)sc1C(=O)Nc1cccc(Cl)c1C,inactive: 87%
12,c1ccc(N(c2ccccc2)c2nc(-n3nnc4ccccc43)nc(-n3nnc4ccccc43)n2)cc1,inactive: 103%
13,CC1CCN(c2nn3c(=O)c(C(=O)NCCc4ccc(Cl)cc4)cnc3s2)CC1,inactive: 66%
14,COc1ccc2oc(=O)cc(CN3CCN(C(=O)c4ccccc4Br)CC3)c2c1,inactive: 72%
15,COc1ccccc1/C=N\NC(N)=S,inactive: 109%
16,O=c1[nH]c2ccc(NS(=O)(=O)c3ccc(F)cc3)cc2s1,inactive: 71%
17,CCOc1ccc2nc(N3CCN(C(=O)C(C)C)CC3)sc2c1,inactive: 72%
18,Brc1ccc(-c2nc(N3CCN(c4ccccc4)CC3)c3ccccc3n2)cc1,inactive: 127%
19,Cn1nnnc1SCCCNCc1ccc(-c2cccc(Cl)c2)o1,inactive: 105%
20,O=c1cc2nc(-c3ccccc3F)nc(SCc3ccc(Br)cc3)n2[nH]1,active: -2%
21,Cc1cccc(Cn2c(SCc3ccc(C(=O)NCc4cccs4)cc3)nc3cccnc32)c1,inactive: 79%
22,Cc1ccccc1-n1c2nc(=O)[nH]c(=O)c-2cc2c(Cl)cccc21,inactive: 85%
